Here are results for 120 sequences from the supplement of paper PMC10126150.

Values marked as one replicate rest on one cluster of the flow cell; about a third of the high ones do not repeat.

The data set relates to ATP. Briefly: switch fluorescence ratio, 500 uM ATP over buffer (Cy3 cluster intensity, sum of 5 cycles each) (fold (ratio)); higher = stronger signal-on switching upon ATP binding; sequences stand for … in TCGTCGGCAGCGTCAGATGTGTATAAGAGACAGTTTTTTTTTTTTTTTTTTTTTTTTT…TC. The following applies: aptamer strand: ATP DNA aptamer (quencher-CACCTGGGGGAGTATTGCGGAGGAAGG + anchor), 100 nM annealed; ATP concentration: 500 uM; one replicate. The method in brief:
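Exposure to 500 uM ATP lasted 15 min at 22 °C before imaging, and a selection-buffer image was taken beforehand, for Cy3-labelled switching-strand clusters on a modified Illumina MiSeq flow-cell annealed to 100 nM quencher-labelled ATP aptamer. Five buffer/ATP cycles were run with NaOH stripping and re-annealing between them. The fluorescence ratio per cluster is summed target-cycle over summed buffer-cycle Cy3 intensity, averaged per switch-domain sequence. Clusters outside 100-1000 RFU were excluded.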

As for AACCGTTAGA, the switch fluorescence ratio turned out to be 1.05.

AGCAGGGTCT: the switch fluorescence ratio was found to be 0.984.

With ATAACGAAGG, the switch fluorescence ratio amounted to 1.05.

In the case of TTCGTCGTCA, the switch fluorescence ratio worked out at 0.985.

On to ACGTCCGATT, for which the switch fluorescence ratio is 1.06.

Regarding ACTCATTGGT, the switch fluorescence ratio worked out at 1.01.

As to CTTCCACATT, the switch fluorescence ratio turned out to be 1.3.

ACAAGCCAAA: the switch fluorescence ratio amounted to 0.979.

For the sequence CGATCTGGCA, the switch fluorescence ratio is 0.992.

TCTTGACGAT: the switch fluorescence ratio was determined as 0.958.

With TTTAGCTTGC, the switch fluorescence ratio was 0.99.

For the sequence CTGGCGACCT, the switch fluorescence ratio was 1.08.

As to CTTAGGTACA, the switch fluorescence ratio stood at 1.03.

Regarding CTAACGTGCT, the switch fluorescence ratio turned out to be 0.984.

With GCTCATAAAT, the switch fluorescence ratio is 0.993.

For TCAGTGGATC, the switch fluorescence ratio stood at 0.994.

Consider TGTTTTTTAC, for which the switch fluorescence ratio came out at 1.04.

Take TTGCAGAATG: the switch fluorescence ratio was 1.02.

On to TGGGCGTCC, for which the switch fluorescence ratio worked out at 1.

In the case of AGTAGGTTGG, the switch fluorescence ratio worked out at 1.01.

For GTCGGGAAAA, the switch fluorescence ratio was determined as 1.07.

ATCAGTACAA: the switch fluorescence ratio was found to be 1.09.

Take AGTTAGGTGC: the switch fluorescence ratio amounted to 1.19.

Take GTTCGCGAG: the switch fluorescence ratio was 0.984.

With ATTATGGGCT, the switch fluorescence ratio was 0.988.

TGCACTGTTG: the switch fluorescence ratio came to 0.997.

Take AAGGGTCTAC: the switch fluorescence ratio stood at 0.987.

Take ACATGACGCG: the switch fluorescence ratio is 0.953.

For GTGACAGTG, the switch fluorescence ratio worked out at 1.04.

For ACGAACATAC, the switch fluorescence ratio was 2.82.

As for TCCCTTAGCG, the switch fluorescence ratio is 1.04.

Regarding GCTGCCTGAG, the switch fluorescence ratio amounted to 1.02.

As to ACGGACTTAG, the switch fluorescence ratio stood at 1.13.

Take TTATCAGGAC: the switch fluorescence ratio is 1.07.

Turning to CGGAAAGTAA, the switch fluorescence ratio came out at 1.

As for AAATAAGCTA, the switch fluorescence ratio was found to be 1.

Turning to TTCCGGGGCT, the switch fluorescence ratio was 0.97.

Consider GGGGTAGAT, for which the switch fluorescence ratio was determined as 1.

CGGACCAGTC: the switch fluorescence ratio was 1.

In the case of CCCTTTGTTT, the switch fluorescence ratio turned out to be 1.01.

As for TGATCCAA, the switch fluorescence ratio is 0.965.

Turning to TTTGATCATC, the switch fluorescence ratio came out at 1.04.

On to AAGTCTCAGG, for which the switch fluorescence ratio is 0.99.

Regarding ATACTGGTCT, the switch fluorescence ratio came to 1.06.

On to GGTTGAGCAT, for which the switch fluorescence ratio stood at 1.02.

In the case of TGGGGCCATC, the switch fluorescence ratio came to 0.985.

Take CTTCGGCTG: the switch fluorescence ratio amounted to 1.04.

Turning to AGTATAGTTA, the switch fluorescence ratio was 1.01.

Regarding AGAGTCAGGG, the switch fluorescence ratio was 0.989.

As to ACTAATACCG, the switch fluorescence ratio was 1.

Regarding TTAGAAGAGA, the switch fluorescence ratio came to 1.05.

For TACATACGGC, the switch fluorescence ratio amounted to 1.72.

For the sequence TTACCGACCC, the switch fluorescence ratio stood at 1.52.

AGGTCTGAGG: the switch fluorescence ratio was 1.01.

As to ACTTAAGGT, the switch fluorescence ratio worked out at 1.03.

With ATATCAAGCG, the switch fluorescence ratio worked out at 0.986.

Regarding TGTGGGATAA, the switch fluorescence ratio turned out to be 0.982.

For the sequence CGTCGTCATT, the switch fluorescence ratio amounted to 1.01.

Consider GATGGATAAC, for which the switch fluorescence ratio turned out to be 1.

Take AGAGCTTGAA: the switch fluorescence ratio worked out at 0.994.

As for CAATTTTCT, the switch fluorescence ratio was found to be 1.02.

Take TGGGCGGCAG: the switch fluorescence ratio was 0.969.

On to CCTTGCTCAC, for which the switch fluorescence ratio amounted to 4.07.

As to CCGGGAGGT, the switch fluorescence ratio was determined as 0.985.

ATGGAAGGT: the switch fluorescence ratio was determined as 1.22.

As for ACCTTAGGGC, the switch fluorescence ratio amounted to 0.989.

Take AAGATTACTG: the switch fluorescence ratio worked out at 1.01.

As to AATAGAGGGC, the switch fluorescence ratio is 0.978.

For CCACGTGAAC, the switch fluorescence ratio turned out to be 1.51.

GGCGATCTTC: the switch fluorescence ratio was found to be 1.02.

On to AAGTAAGGCT, for which the switch fluorescence ratio was determined as 1.02.

Regarding GAGGTAAACT, the switch fluorescence ratio was determined as 0.978.

As to CCGGACTATG, the switch fluorescence ratio was 0.963.

Regarding TTGCCTCCAA, the switch fluorescence ratio amounted to 1.13.

TCAAGTCGAT: the switch fluorescence ratio was found to be 0.988.

With ATTATAGATG, the switch fluorescence ratio came to 0.939.

For the sequence CAAAGCCTTA, the switch fluorescence ratio is 1.

For the sequence AATATTATTC, the switch fluorescence ratio is 1.04.

For the sequence GCCGCGTAGG, the switch fluorescence ratio is 0.981.

On to ACTGGTAATC, for which the switch fluorescence ratio was determined as 1.05.

For the sequence TAGTCCTGTT, the switch fluorescence ratio was found to be 0.962.

Take CGAGTTAACA: the switch fluorescence ratio turned out to be 1.01.

As for GTGGATTCGA, the switch fluorescence ratio turned out to be 1.02.

Take GAGTCATAA: the switch fluorescence ratio is 0.96.

With GCTGTGACCT, the switch fluorescence ratio was found to be 1.15.

Take AATAAGCCAA: the switch fluorescence ratio turned out to be 0.983.

Regarding GTGTCAAAGC, the switch fluorescence ratio is 0.994.

For TCGATGTACA, the switch fluorescence ratio is 1.2.

TAAATTAGAA: the switch fluorescence ratio was 0.954.

In the case of AAAATCTAGG, the switch fluorescence ratio is 1.07.

For TTCTTACTCT, the switch fluorescence ratio came to 1.05.

On to TTAGCTATCC, for which the switch fluorescence ratio amounted to 3.51.

As to AGTCTTCG, the switch fluorescence ratio came to 1.09.

For the sequence CGCGTATCCG, the switch fluorescence ratio turned out to be 1.03.

With TCACGAAGGC, the switch fluorescence ratio was 1.03.

Turning to GGCTGTTGTG, the switch fluorescence ratio is 0.995.

For the sequence CATTTTATGG, the switch fluorescence ratio was 0.962.

Consider CACAGTCGCT, for which the switch fluorescence ratio turned out to be 0.993.

As for ACGCTTGACC, the switch fluorescence ratio was 1.07.

Consider TTCGCTGGAT, for which the switch fluorescence ratio is 1.02.

Take CAATCTCCGA: the switch fluorescence ratio was found to be 1.06.

In the case of ATAGTGGCCT, the switch fluorescence ratio was found to be 1.02.

For the sequence TATAGGAGCG, the switch fluorescence ratio came out at 1.01.

Consider AGATGTAAAA, for which the switch fluorescence ratio worked out at 1.04.

Regarding ACTCCGTTGT, the switch fluorescence ratio came out at 3.24.

GTGAAATTCC: the switch fluorescence ratio worked out at 1.02.

Turning to CGCAGGCATT, the switch fluorescence ratio turned out to be 1.17.

Regarding TATGGCCTAG, the switch fluorescence ratio is 1.01.

As for GTAAGACACA, the switch fluorescence ratio was determined as 1.08.

Take AACGTCAGCC: the switch fluorescence ratio is 1.06.

As for CGTCTGTTAC, the switch fluorescence ratio was 2.55.

With ATTGGACCAA, the switch fluorescence ratio turned out to be 1.05.

With AGTAGCGGCG, the switch fluorescence ratio was 1.04.

AGTTCGGTAG: the switch fluorescence ratio is 0.961.

Consider TTCGGATTGC, for which the switch fluorescence ratio was 0.992.

For GATTCAGCAG, the switch fluorescence ratio is 1.02.

As for CAGGTCGGCA, the switch fluorescence ratio was 1.06.

As for TAACGTGTCA, the switch fluorescence ratio was 1.03.

Turning to CTTTCCTAGG, the switch fluorescence ratio worked out at 1.12.

CATGCACTCT: the switch fluorescence ratio came to 1.03.
